Experimental data: a compilation of properties of binary mixtures (doi:10.1021/je7001804)
The densities may have been worked out from excess volumes.

Test: xn = mol fraction of the nth substance listed
Conditions: 101 kPa

CC[n+]1ccn(C)c1.O=S(=O)([O-])C(F)(F)F + CCCO
mass density [kg/m3]
Conditions | 278.15 K | 288.15 K | 298.15 K | 308.15 K | 318.15 K | 328.15 K | 338.15 K
x2 = 0.049 | 1389.1 | 1380.6 | 1372.2 | 1363.8 | – | 1347.2 | 1339
x2 = 0.1095 | 1373.9 | 1365.4 | 1356.9 | – | 1340.2 | – | 1323.7
x2 = 0.1497 | 1363.1 | 1354.6 | 1346.1 | 1337.7 | 1329.4 | – | 1312.9
x2 = 0.2004 | 1348.6 | 1340.1 | – | – | 1314.9 | 1306.7 | 1298.5
x2 = 0.3 | 1317 | 1308.5 | 1300 | 1291.6 | 1283.3 | 1275 | 1266.8
x2 = 0.3993 | – | 1271.8 | 1263.4 | 1255 | 1246.7 | 1238.4 | 1230.2
x2 = 0.499 | 1237.2 | 1228.7 | 1220.2 | 1211.8 | 1203.5 | 1195.2 | 1186.9
x2 = 0.6007 | 1184.6 | 1176.2 | 1167.7 | 1159.3 | – | 1142.6 | 1134.3
x2 = 0.6998 | 1122.4 | – | 1105.5 | – | 1088.8 | 1080.4 | 1072
x2 = 0.7996 | 1044.8 | – | 1028.1 | 1019.8 | 1011.4 | 1002.9 | 994.5
x2 = 0.8496 | 998.6 | 990.4 | 982.1 | 973.8 | 965.4 | 957 | 948.5
x2 = 0.8999 | 946.2 | 938 | 929.8 | 921.6 | 913.2 | 904.8 | –
x2 = 0.9499 | 885.8 | 877.8 | 869.7 | – | – | – | 836.2

CC[n+]1ccn(C)c1.O=S(=O)([O-])C(F)(F)F + CCO
mass density [kg/m3]
Conditions | 278.15 K | 288.15 K | 298.15 K | 308.15 K | 318.15 K | 328.15 K
x2 = 0.0508 | 1391.4 | 1382.9 | 1374.4 | 1366 | 1357.7 | 1349.4
x2 = 0.0983 | – | – | 1365 | 1356.6 | – | 1340
x2 = 0.1483 | 1371.2 | 1362.7 | – | 1345.8 | 1337.4 | 1329.1
x2 = 0.198 | – | 1351.2 | – | – | – | –
x2 = 0.3072 | 1331.1 | – | – | – | 1297.1 | –
x2 = 0.4068 | 1299.4 | 1290.8 | 1282.3 | 1273.8 | 1265.3 | 1256.9
x2 = 0.4985 | 1264.2 | 1255.5 | 1247 | 1238.4 | – | –
x2 = 0.5999 | 1216.2 | – | 1198.9 | 1190.3 | – | 1173.3
x2 = 0.6991 | – | 1147.8 | 1139.1 | 1130.5 | 1121.9 | 1113.3
x2 = 0.8001 | – | – | 1058.5 | 1049.8 | 1041.1 | 1032.4
x2 = 0.8497 | 1025.8 | 1017.1 | 1008.5 | – | 991.1 | 982.3
x2 = 0.9 | 965.6 | 957 | – | – | 930.9 | –
x2 = 0.9501 | 892.8 | 884.3 | 875.7 | 867 | 858.3 | 849.4

CC[n+]1ccn(C)c1.O=S(=O)([O-])C(F)(F)F + CO
mass density [kg/m3]
Conditions | 278.15 K | 288.15 K | 298.15 K | 308.15 K | 318.15 K
x2 = 0.0511 | 1394.5 | 1385.9 | 1377.5 | 1369 | 1360.7
x2 = 0.1016 | 1387.5 | 1379 | – | 1362 | 1353.7
x2 = 0.1557 | 1379.2 | 1370.7 | – | 1353.7 | 1345.3
x2 = 0.2035 | – | – | 1354.4 | 1345.9 | 1337.5
x2 = 0.3006 | 1353.2 | – | 1335.9 | 1327.4 | 1318.9
x2 = 0.3988 | 1330.4 | – | 1313 | 1304.4 | 1295.9
x2 = 0.5074 | 1298.4 | – | – | 1272.2 | 1263.5
x2 = 0.5993 | 1262.7 | 1253.9 | 1245.1 | 1236.3 | 1227.6
x2 = 0.6995 | 1210.8 | 1201.8 | 1192.9 | – | 1175.2
x2 = 0.8001 | 1135.3 | 1126.2 | 1117.2 | – | 1099.3
x2 = 0.8498 | 1084.1 | 1075 | 1065.9 | 1056.8 | 1047.7
x2 = 0.8995 | 1018.2 | 1009 | 999.8 | 990.6 | 981.4
x2 = 0.9495 | – | 921.1 | – | – | 893.3

CC[n+]1ccn(C)c1.O=S(=O)([O-])C(F)(F)F + O
mass density [kg/m3]
Conditions | 278.15 K | 288.15 K | 298.15 K | 308.15 K | 318.15 K | 328.15 K | 338.15 K
x1 = 0.0178 | 1065.4 | 1062.6 | 1058.9 | 1054.4 | – | 1043.7 | 1037.5
x2 = 0.0502 | 1398.1 | 1389.6 | 1381.2 | 1372.8 | 1364.4 | 1356.1 | –
x2 = 0.1058 | 1395.4 | 1386.9 | – | – | – | – | 1345.2
x2 = 0.1504 | 1393 | – | 1376 | 1367.6 | 1359.3 | – | 1342.7
x2 = 0.249 | – | 1378.8 | 1370.4 | 1362 | 1353.6 | 1345.2 | 1337
x2 = 0.3004 | 1383.9 | 1375.4 | 1366.9 | 1358.5 | – | – | –
x2 = 0.3524 | – | 1371.4 | 1362.9 | 1354.5 | 1346 | – | 1329.3
x2 = 0.3961 | – | 1367.5 | 1359 | – | 1342.1 | 1333.7 | 1325.3
x2 = 0.4505 | 1370.6 | 1362.1 | – | 1345.1 | 1336.7 | 1328.2 | 1319.8
x2 = 0.5024 | 1364.7 | – | 1347.7 | – | 1330.7 | 1322.2 | 1313.8
x2 = 0.5502 | 1358.2 | 1349.6 | 1341.1 | 1332.6 | 1324.1 | – | –
x2 = 0.6 | – | 1341.7 | 1333.2 | 1324.7 | – | 1307.6 | 1299
x2 = 0.6502 | 1340.3 | 1331.8 | 1323.4 | 1314.8 | 1306.3 | 1297.7 | 1289.1
x2 = 0.702 | 1327.9 | 1319.5 | 1311 | – | – | 1285.3 | 1276.7
x2 = 0.7493 | 1312.9 | 1304.6 | 1296.2 | – | 1279.2 | 1270.6 | 1261.9
x2 = 0.7998 | – | – | 1275.8 | 1267.5 | 1259.1 | 1250.5 | 1241.8
x2 = 0.8499 | 1262.9 | 1255.2 | 1247.3 | 1239.2 | 1231 | 1222.6 | –
x2 = 0.8996 | – | 1212 | – | 1197.2 | – | 1181.5 | 1173.2
x2 = 0.9498 | – | 1141 | 1135.2 | 1129 | 1122.4 | 1115.2 | 1107.9
